Here are results for 167 variants from the RNAGym collection of RNA variant scans (doi:10.7554/elife.90254).

To fix the notation:
B1: LINE1-mini (parent)
chain: GGCAGAGCUCAACACAGCGUGGCAAAGUGGCUGUGGCUAGACUGCC

The source gives no read counts; variants with many changes may rest on few reads.

In this series the parent is B1. The series is described as follows: self-cleavage, relative activity (ratio to wild type); higher = more cleavage; in vitro, sequencing; the parent is a self-cleaving ribozyme.
C3G A16U G35C C46A: the self-cleavage was found to be 0.05. In the case of C3U C8U C37U it was 0.71; in that of C3G G19U G44U, 0.26.

Regarding C3G G27U C37A U38A C45G, the self-cleavage is 0.02. Next, C3G A6U A16U G27U U38G C42U: 0.01; C3U A14U G35C: 0.52. Consider C3G G21U C23A G29C, for which the self-cleavage was 0.62. Turning to C3G G5C C23G U28G, the self-cleavage stood at 0.06.

For the variant C3G A12U C15A A16C C31G G35U, the self-cleavage came to 0.04. C3U C8A G21A C23U: the self-cleavage worked out at 2.59. Next, C3G C23G G35C: 0.14; C3G A11G C37U U43C: 0; C3G C10G A12G A14G C15G: 0.04. In the case of C3U A12U C13U C37A C45A it was 0.05; in that of C3G A26G G40C A41U, 0.04. For C3U A6C C15A A16G, the self-cleavage was 0.25. Turning to C3G C13A G17A A26C G40A, the self-cleavage stood at 0.25.

Regarding C3U A4C G19C C37A, the self-cleavage was 0. On to C3G U9C G19C U20C C31U, for which the self-cleavage amounted to 0. In the case of C3U A4U G21C C23A G33A G36U it was 0.08.

For the variant C3G G7A U28A, the self-cleavage was found to be 0.4.

With C3G A41U G44U, the self-cleavage came out at 2.24. In the case of C3G A14C C18A U43A C46U it was 0.11; in that of C3G C10U A25C G30U, 0.02. In the case of C3G A12G G19U U34C U43A it was 0.05; in that of C3U C8U G17U A24G C46U, 0.01. Next, C3G A25G C37A A41G: 0.16; C3U A14C G17C A26G U43C: 0.02. For C3G A12U A41C, the self-cleavage came to 0.11.

Take C3G G5A C10G C18G C31A C45G: the self-cleavage amounted to 0.02.

Turning to C3G A24U A25G, the self-cleavage stood at 2.34. In the case of C3U A4U G5U C10G G27C C31U it was 0.02; in that of C3G C18G A41G, 0.12; in that of C3G U9G C13G C46G, 0.04. As for C3G G27U U32C A41C, the self-cleavage came out at 0.03.

As to C3U A11C U20A G30U, the self-cleavage worked out at 0.01. Consider C3G G5U A12U A26C G36C A41G U43C, for which the self-cleavage was found to be 0.12. Turning to C3G A14G U28A U43C, the self-cleavage came to 0.24. In the case of C3G G19A C23U U28A U38G, the self-cleavage was determined as 0.01.

Regarding C3G G7U A12C C31A G44U, the self-cleavage is 0.05. For the variant C3U C8A A25C, the self-cleavage amounted to 0.12.

Regarding C3G A11G G29U G30C, the self-cleavage is 0.04. In the case of C3U A6G A25U C31A A41G it was 0.07.

As to C3G G5A C10G C31U A39U, the self-cleavage was found to be 0.02. Next, C3G C10A A14U A25U A26U G30U G35C: 0.01; C3G G17A C23G U34G: 0.02. Take C3U A4U C13A U38C G44C: the self-cleavage came out at 0.09. C3G G5U U34C: the self-cleavage is 0.08. In the case of C3G G19C G35A it was 0.08; in that of C3G U34C G36C C46G, 0.03. In the case of C3U C10A G30C C37G it was 0.01; in that of C3G A14C G21C G27C, 0.09.

Regarding C3G G21U A24U, the self-cleavage is 0.22. Turning to C3U C10A G17C C46U, the self-cleavage was determined as 0.02.

For the variant C3G C13A U28A G33A, the self-cleavage came to 0.28.

As to C3G C10U A26C, the self-cleavage turned out to be 0.08. In the case of C3U A4U C13G A14U, the self-cleavage came out at 0.11. In the case of C3G G22A G27U G35U it was 1.89; in that of C3U C10A U34A C46A, 0.04; in that of C3G G17U G30A U32A C37A, 0.17.

C3G C23A C37A A41U: the self-cleavage was 0.58. Next, C3U A26U A41G: 0.08. Take C3U A16C G29A G35A: the self-cleavage was determined as 0.05. For C3U A12C G29A, the self-cleavage worked out at 0.04. In the case of C3U A6U U9C C10A it was 0.02; in that of C3G C15U G17U U20G, 0.15. In the case of C3G G5U G17U U20G C23G, the self-cleavage was 0.05. For the variant C3G C8A G35A, the self-cleavage stood at 1.24. In the case of C3G C8G C15U A16C G19C A26C G36C it was 0.02. In the case of C3U A14C A25C G30A C31A G44A it was 0.04; in that of C3G A25G A41C, 0.02. Take C3U A12U C15G: the self-cleavage came out at 0.04.

Turning to C3U C8U G19U G36A, the self-cleavage amounted to 0.12. As for C3U A11U U32G C46U, the self-cleavage came out at 0.03.

Regarding C3U C10A G17U A25C A26C C31A C45A, the self-cleavage turned out to be 0.02. Next, C3G C15A G19C C31U: 0.03; C3G A12U C13U C15U G22A G40C: 0.1. In the case of C3G C8A U38A it was 0.33; in that of C3G G30C C37U C45U, 0.08. Next, C3G C10A G21C: 0.04. As to C3G G5U G21A G27U, the self-cleavage was found to be 0.25. Next, C3U A14C G21A G40U C42U: 0.02. On to C3G G5C A24G, for which the self-cleavage came out at 0.05. As to C3U A26C A39G, the self-cleavage was 0.08. Take C3G C8A A24C G27A: the self-cleavage was 0.5. As for C3G C18G G30A, the self-cleavage is 0.04.

C3G A4U U34C C37A: the self-cleavage turned out to be 0.05. In the case of C3U C10A G44U it was 0.09. On to C3U A25C G29A C42G G44C, for which the self-cleavage was found to be 0.02. In the case of C3G G5U A14U C15U it was 0.27; in that of C3G G7U C10A A12G G19U G30U C42A C46U, 0.01. In the case of C3G C13A A24U C37G G44A it was 0.02. C3U A12U C15G C18G G21U G29A G33C C45U: the self-cleavage was determined as 0.02.

Regarding C3G C15A A16U, the self-cleavage is 0.2. Take C3G G7U C15U C18G A41U: the self-cleavage is 0.07.

For the variant C3G G27A U34A, the self-cleavage was determined as 0.11.

Regarding C3G C15A G27C G44U, the self-cleavage is 0.46. Next, C3U A6U G27A G33U: 0.24; C3G C31G C37A: 0.03. As for C3G C10G A11U G30A G33U C37U A39G A41C, the self-cleavage came to 0.01. In the case of C3G C13G G29U it was 0.24; in that of C3G A25C C37A, 0.77; in that of C3G C15G U28C, 0.04. Next, C3U A11G A14C C31A G40U: 0; C3G C8G G21U G35C: 0.02; C3U A14U U38G: 0.04.

As to C3G C8U U9C, the self-cleavage was 0.03. On to C3G U9C A11G G19C U20A G36U, for which the self-cleavage was 0.01. In the case of C3U C8A G19C C46G it was 0.07. Next, C3G C13G G27U U28G A39C: 0.16; C3U A6G U9A C10U U32G: 0.04. Next, C3U A6G U9C A11U A39G: 0.01.

Take C3G G35A C46U: the self-cleavage was 0.

As for C3G C13G A14U C15A G19U G29A A39C, the self-cleavage came out at 0.07. In the case of C3U C8G A16C G19C it was 0.2; in that of C3G A11U A16U G30C C37A, 0.01; in that of C3G G22U C37G C42G, 0. In the case of C3G C15U U32A C46U, the self-cleavage was 0.27. In the case of C3U A26U C37A it was 0.18; in that of C3U A16G G19U C23A, 0.11; in that of C3G C15A A25C C42A, 0.07. Next, C3G A6U G30U: 0.7. Next, C3G U28C C31U: 0.11; C3U A14U C15A: 0.37; C3G C15A G19C U32A: 0.04. On to C3U A4C G36A, for which the self-cleavage amounted to 0.59. C3G A12U A16C G30A A41C: the self-cleavage turned out to be 0.01. With C3G G7A U9G, the self-cleavage came to 0.47. Take C3U A26C C31A C37U: the self-cleavage stood at 0.17. Next, C3G A14G G17A: 0.05; C3G G17U C18A G30C: 0.65; C3U A25C G27C: 0.07. As to C3U A14G U32A G35C, the self-cleavage was found to be 0.04.

For C3U A6G C10A A24G A41U, the self-cleavage came to 0.01.

In the case of C3G U9C A14U, the self-cleavage came to 0.04. Next, C3G C18G U38G: 0.05. In the case of C3U A12C G19C A41U it was 0.01. Next, C3G G7C G19A G22A C46G: 0.04. On to C3G A6U G33C, for which the self-cleavage came to 0.09.

Regarding C3G A24G G35U, the self-cleavage amounted to 0.48. Consider C3G A6C U9C G22C G33U G36A, for which the self-cleavage came to 0.05. With C3G A6C C23U C31U, the self-cleavage worked out at 0.16. In the case of C3G G5A A6G C10U A16C, the self-cleavage is 0.01. In the case of C3G G7C C8U U9C C23A it was 0.48; in that of C3G A6G C46G, 0.14.

Turning to C3G A12C C37U, the self-cleavage was 0.02.

For the variant C3U C10A C23A C31U, the self-cleavage is 0.04. C3U A4U G5A A11G G27C: the self-cleavage was determined as 0.05. With C3G A11U G29U, the self-cleavage came out at 0.05. Next, C3G G5C G7C A24C C37U A41C C42G: 0.

For the variant C3G A16U U32G, the self-cleavage amounted to 0.27. In the case of C3U C10A G36U C42U G44U it was 0.

In the case of C3G A6G G7C A11U A16C C18U C31A, the self-cleavage stood at 0.01.

For the variant C3U A14U G29U G30C, the self-cleavage was found to be 0.14. As to C3U C10A C18A U32G U43G C46G, the self-cleavage stood at 0.02. Next, C3G A11U A41G: 0.01; C3G C8U G19U: 0.16; C3G G5U A41U C42U: 0.22.

Turning to C3G G7A C15U, the self-cleavage is 0.22. In the case of C3U A4G G7U G17A U32C A39G it was 0.03. Next, C3G A24G G29A U34A C37U U38A: 0.12. Take C3U A12U A16C G22U C42U: the self-cleavage was 0. C3U A6C A11C G21C G22U U34G: the self-cleavage is 0.01. With C3G C8U A26C, the self-cleavage turned out to be 0.42. In the case of C3G U20C G36U C45U it was 0.76; in that of C3G A14U U32G, 0.08. As for C3G A4U G7C G30U, the self-cleavage came to 0.06.
